In patent publication US11000038B2, “Pyridone compounds and agricultural and horticultural fungicides containing the same as active ingredients” (priority 2017, dated 2021):

Tests used:
[1] = tested on: grape downy mildew fungus (Plasmopara viticola); test: Test Example G: grape downy mildew, spray treatment of grape plants; details: for Test G control value: grape downy mildew, 7 to 10 days after inoculation; for Test G control value class (grape downy mildew): 2.5 ml/pot, grape Neomuscat, 7 to 10 days from inoculation
[2] = tested on: wheat brown rust fungi (Puccinia recondita); test: Test Example E: wheat brown rust, spray treatment of wheat plants; type: in vivo; details: for Test E control value: wheat brown rust; for Test E control value class (wheat brown rust): control value=100{1-(n/3)}
[3] = tested on: barley powdery mildew fungi (Blumeria graminis f. sp. hordei); test: Test Example D: barley powdery mildew, spray treatment of barley plants; details: for Test D control value: barley powdery mildew; for Test D control value class (barley powdery mildew): control value=100{1-(n/3)}
[4] = tested on: gray mold fungi (Botrytis cinerea); test: Test Example B: tomato gray mold, spray treatment of tomato plants; details: for Test B control value: tomato gray mold; for Test B control value class (tomato gray mold): control value=100{1-(n/3)}
[5] = tested on: cabbage Alternaria sooty spot fungi (Alternaia brassicicola); test: Test Example C: cabbage Alternaria sooty spot, spray treatment of cabbage plants; type: in vivo; details: for Test C control value: cabbage Alternaria sooty spot; for Test C control value class (cabbage Alternaria sooty spot): control value=100{1-(n/3)}
Source text: [Test Example C] Cabbage Alternaria Sooty Spot
Test plants (cabbage variety: Shikidori) were cultivated until the cotyledons extended after the sowing of seeds.
<Control Value> Control value=100{1−(n/3)}

[6] = spray treatment of wheat plants
[7] = spray treatment of barley plants
[8] = spray treatment of tomato plants
[9] = spray treatment of cabbage plants

SMILES | Test G control value ([1]; 250 ppm spray) | Test E control value ([2]; spray treatment) | Test D control value ([3]; spray treatment) | Test B control value ([4]; spray treatment) | Test C control value ([5]; spray treatment) | Test G control value class (grape downy mildew) ([1]; 250 ppm spray) | Test E control value class (wheat brown rust) [2, 6] | Test D control value class (barley powdery mildew) [3, 7] | Test B control value class (tomato gray mold) [4, 8] | Test C control value class (cabbage Alternaria sooty spot) [5, 9] | other results
COc1cc(-n2cc(Br)c(=O)c(Br)c2-c2c(F)cccc2F)c(C)cc1Br [Compound 384] | L (L shows the control value of 50% or less) | H (H shows the control value of more than 50%) | L (L shows the control value of 50% or less) | L (L shows the control value of 50% or less) | L (L shows the control value of 50% or less) |  |  |  |  |  | 
Cc1cc(Cl)ccc1-n1cc(Cl)c(=O)c(Br)c1-c1c(F)cc(F)cc1F [Compound 331] |  |  |  |  |  |  |  |  |  |  | Test G control value ([1]; 250 ppm spray (2.5 ml/pot)): L (L shows the control value of 50% or less); Test E control value [2, 6]: H (H shows the control value of more than 50%); Test D control value [3, 7]: L (L shows the control value of 50% or less); Test B control value [4, 8]: H (H shows the control value of more than 50%); Test C control value [5, 9]: H (H shows the control value of more than 50%)
CCc1c(-c2c(F)cc(F)cc2F)n(-c2ccccc2)cc(Br)c1=O [Compound 492] | L (L shows the control value of 50% or less) | H (H shows the control value of more than 50%) | L (L shows the control value of 50% or less) | H (H shows the control value of more than 50%) | H (H shows the control value of more than 50%) |  |  |  |  |  | 
CCc1c(-c2ccc(F)cc2F)n(-c2ccccc2)cc(Br)c1=O [Compound 597] | L (L shows the control value of 50% or less) | H (H shows the control value of more than 50%) | L (L shows the control value of 50% or less) | H (H shows the control value of more than 50%) | H (H shows the control value of more than 50%) |  |  |  |  |  | 
CCc1ccccc1-n1cc(C)c(=O)c(CC)c1-c1c(F)cccc1F [Compound 510] | L (L shows the control value of 50% or less) | L (L shows the control value of 50% or less) | L (L shows the control value of 50% or less) | H (H shows the control value of more than 50%) | H (H shows the control value of more than 50%) |  |  |  |  |  | 
COc1cc(F)c(-c2c(Cl)c(=O)c(Cl)cn2Cc2ccccc2)c(F)c1 [Compound 58] |  |  |  |  |  | H (H shows the control value of more than 50%) | H (H shows the control value of more than 50%) | H (H shows the control value of more than 50%) | H (H shows the control value of more than 50%) | H (H shows the control value of more than 50%) | 
CC(=O)Oc1cc(F)c(-c2c(C)c(=O)c(C)cn2-c2cc(C)ccc2C)c(F)c1 [Compound 407] | L (L shows the control value of 50% or less) | H (H shows the control value of more than 50%) | L (L shows the control value of 50% or less) | H (H shows the control value of more than 50%) | L (L shows the control value of 50% or less) |  |  |  |  |  | 
Cc1ccccc1-n1cc(Br)c(=O)c(Br)c1-c1ccc(C#N)cc1 [Compound 238] |  |  |  |  |  |  |  |  |  |  | Test G control value ([1]; 250 ppm spray (2.5 ml/pot)): L (L shows the control value of 50% or less); Test E control value [2, 6]: L (L shows the control value of 50% or less); Test D control value [3, 7]: L (L shows the control value of 50% or less); Test B control value [4, 8]: L (L shows the control value of 50% or less); Test C control value [5, 9]: L (L shows the control value of 50% or less)
CCc1c(-c2c(F)cc(F)cc2F)n(-c2cc(F)ccc2C)cc(C)c1=O [Compound 522] | L (L shows the control value of 50% or less) | H (H shows the control value of more than 50%) | H (H shows the control value of more than 50%) | H (H shows the control value of more than 50%) | H (H shows the control value of more than 50%) |  |  |  |  |  | 
O=c1c(Cl)cn(-c2ccccc2Cl)c(-c2c(F)cccc2F)c1Cl [Compound 61] |  |  |  |  |  | L (L shows the control value of 50% or less) | H (H shows the control value of more than 50%) | H (H shows the control value of more than 50%) | H (H shows the control value of more than 50%) | H (H shows the control value of more than 50%) | 
COc1ccc(-c2c(C)c(=O)c(C)cn2-c2cc(OC)ccc2C)cc1 [Compound 606] | H (H shows the control value of more than 50%) | H (H shows the control value of more than 50%) | H (H shows the control value of more than 50%) | H (H shows the control value of more than 50%) | H (H shows the control value of more than 50%) |  |  |  |  |  | 
O=c1c(Br)cn(CCc2ccccc2)c(-c2c(F)cc(F)cc2F)c1Cl [Compound 100] |  |  |  |  |  | L (L shows the control value of 50% or less) | H (H shows the control value of more than 50%) | L (L shows the control value of 50% or less) | L (L shows the control value of 50% or less) | L (L shows the control value of 50% or less) | 
COCCOc1ccc(C)c(-n2cc(Cl)c(=O)c(Cl)c2-c2c(F)cc(OC)cc2F)c1 [Compound 296] |  |  |  |  |  |  |  |  |  |  | Test G control value ([1]; 250 ppm spray (2.5 ml/pot)): L (L shows the control value of 50% or less); Test E control value [2, 6]: H (H shows the control value of more than 50%); Test D control value [3, 7]: L (L shows the control value of 50% or less); Test B control value [4, 8]: H (H shows the control value of more than 50%); Test C control value [5, 9]: H (H shows the control value of more than 50%)
Cc1ccccc1-n1cc(Br)c(=O)c(Cl)c1-c1c(F)cccc1F [Compound 111] |  |  |  |  |  | L (L shows the control value of 50% or less) | H (H shows the control value of more than 50%) | L (L shows the control value of 50% or less) | H (H shows the control value of more than 50%) | H (H shows the control value of more than 50%) | 
COc1cc(F)c(-c2c(Cl)c(=O)c(Cl)cn2CCc2ccccc2)c(F)c1 [Compound 102] |  |  |  |  |  | L (L shows the control value of 50% or less) | H (H shows the control value of more than 50%) | L (L shows the control value of 50% or less) | H (H shows the control value of more than 50%) | H (H shows the control value of more than 50%) | 
CC(=O)c1cn(C(C)C(C)C)c(-c2c(F)cc(F)cc2F)c(Cl)c1=O (stereo not shown) [Compound 136] |  |  |  |  |  | H (H shows the control value of more than 50%) | H (H shows the control value of more than 50%) | L (L shows the control value of 50% or less) | H (H shows the control value of more than 50%) | H (H shows the control value of more than 50%) | 
COc1cc(F)c(-c2c(Cl)c(=O)c(Cl)cn2-c2ccccc2)c(F)c1 [Compound 16] |  |  |  |  |  | L (L shows the control value of 50% or less) | H (H shows the control value of more than 50%) | L (L shows the control value of 50% or less) | H (H shows the control value of more than 50%) | H (H shows the control value of more than 50%) | 
Cc1ccccc1-n1cc(C)c(=O)c(C)c1-c1ccc(F)cc1 [Compound 226] |  |  |  |  |  |  |  |  |  |  | Test G control value ([1]; 250 ppm spray (2.5 ml/pot)): L (L shows the control value of 50% or less); Test E control value [2, 6]: H (H shows the control value of more than 50%); Test D control value [3, 7]: L (L shows the control value of 50% or less); Test B control value [4, 8]: H (H shows the control value of more than 50%); Test C control value [5, 9]: H (H shows the control value of more than 50%)
CCc1c(-c2ccccc2)n(-c2cccc(C)c2C)cc(C)c1=O [Compound 503] | L (L shows the control value of 50% or less) | L (L shows the control value of 50% or less) | L (L shows the control value of 50% or less) | L (L shows the control value of 50% or less) | H (H shows the control value of more than 50%) |  |  |  |  |  | 
COc1cc(F)c(-c2c(Br)c(=O)c(Br)cn2-c2ccon2)c(F)c1 [Compound 130] |  |  |  |  |  | L (L shows the control value of 50% or less) | H (H shows the control value of more than 50%) | L (L shows the control value of 50% or less) | H (H shows the control value of more than 50%) | H (H shows the control value of more than 50%) | 
